# Laboratory results from publication PMC4336329 (PLoS ONE, 2015).
# Among all 310,000 compounds or so, about 2,200 (0.71%) showed an effect of 50% or more. The effect is printed as a negative number. This is one part of the list.
# Molecular target: human ether-à-go-go-related gene (hERG) potassium channel (human, UniProt Q12809)
# Assay: primary screen, population patch clamp on CHO cells stably expressing hERG
# Sequence of human ether-à-go-go-related gene (hERG) potassium channel (Q12809 whole entry, looked up): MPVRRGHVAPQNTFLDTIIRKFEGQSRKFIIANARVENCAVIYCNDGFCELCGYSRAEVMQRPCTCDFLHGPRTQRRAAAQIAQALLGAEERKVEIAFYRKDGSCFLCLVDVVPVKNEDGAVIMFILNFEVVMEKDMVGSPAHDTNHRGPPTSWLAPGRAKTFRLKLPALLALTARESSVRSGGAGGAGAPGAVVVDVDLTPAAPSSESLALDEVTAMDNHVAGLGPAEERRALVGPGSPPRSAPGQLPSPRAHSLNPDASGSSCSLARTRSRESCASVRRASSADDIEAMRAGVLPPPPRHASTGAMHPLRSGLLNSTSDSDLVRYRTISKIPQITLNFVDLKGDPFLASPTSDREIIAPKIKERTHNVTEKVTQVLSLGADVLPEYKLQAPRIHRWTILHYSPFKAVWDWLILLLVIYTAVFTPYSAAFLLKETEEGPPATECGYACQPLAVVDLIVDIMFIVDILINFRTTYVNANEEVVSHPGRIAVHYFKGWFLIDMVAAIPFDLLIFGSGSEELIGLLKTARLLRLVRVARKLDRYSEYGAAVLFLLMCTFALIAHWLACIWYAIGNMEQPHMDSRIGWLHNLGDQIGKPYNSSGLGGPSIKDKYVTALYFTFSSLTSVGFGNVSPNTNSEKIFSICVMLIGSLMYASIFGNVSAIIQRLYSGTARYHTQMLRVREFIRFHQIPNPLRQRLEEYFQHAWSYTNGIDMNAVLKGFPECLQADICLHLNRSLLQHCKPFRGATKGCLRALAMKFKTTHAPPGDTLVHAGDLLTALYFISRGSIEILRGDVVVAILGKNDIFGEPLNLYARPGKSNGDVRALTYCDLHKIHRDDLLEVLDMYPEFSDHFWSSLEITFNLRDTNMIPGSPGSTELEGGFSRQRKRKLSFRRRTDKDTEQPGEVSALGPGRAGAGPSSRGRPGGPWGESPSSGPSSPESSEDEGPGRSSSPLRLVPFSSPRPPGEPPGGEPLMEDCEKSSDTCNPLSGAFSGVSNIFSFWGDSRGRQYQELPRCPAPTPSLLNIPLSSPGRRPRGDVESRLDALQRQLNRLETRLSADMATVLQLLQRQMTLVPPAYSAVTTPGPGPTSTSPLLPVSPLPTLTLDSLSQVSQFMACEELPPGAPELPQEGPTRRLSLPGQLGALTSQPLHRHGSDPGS
row,SMILES,"hERG current change (%, negative = inhibition) at 1uM [%]"
1,O=C(CC1S/C(=N/N=C/C=C/c2ccccc2)NC1=O)Nc1ccc(Cl)c(Cl)c1 (stereo not drawn),19.1
2,O=C(NNc1c(F)c(F)cc(F)c1F)c1cc2ccccc2oc1=O,8.46
3,CC(=O)Nc1ccc(NC(=O)CSc2nc(N)c(NC(=O)c3ccccc3F)c(=O)[nH]2)cc1,5.84
4,CCOC(=O)C1C(=O)C=C(c2ccc(C)cc2)CC1c1cccc([N+](=O)[O-])c1 (stereo not drawn),7.82
5,CO/N=C1\CCCc2c(C(=O)NN)sc(SC)c21,12.5
6,Fc1ccc(-c2ccnc3nc(N4CCN(c5ccccc5)CC4)nn23)cc1,-3.15
7,Cc1c(C(=O)NCc2cccnc2)sc2nc(-c3ccccc3)cn12,-7.66
8,CC(=O)N/C(=C/c1ccc(OS(=O)(=O)c2ccc(C)cc2)cc1)C(=O)NCCCO,4.99
9,Cl.O=C(CCN1CCN(CCO)CC1)Nc1ccc(C2CCCC2)cc1,-2.4
10,Cc1ccc(C(=O)Nc2cccc(C(=O)N/N=C/c3ccc(F)cc3)c2)cc1,10.7
11,O=C(CCCn1c(=S)[nH]c2cc3c(cc2c1=O)OCO3)N1CCN(c2ccccc2F)CC1,10.3
12,COc1ccc(C(=O)[C@H]2[C@H]3C(=O)N(c4ccc(OC(C)=O)cc4)C(=O)[C@H]3C3C=CC=NN32)cc1 (stereo partly drawn),11.1
13,O=C(CNC(=O)c1cccnc1)N/N=C/c1cccnc1,7.34
14,Cc1nnc(Sc2cc(C(=O)NCCCOC(C)C)c3ccccc3n2)s1,0.612
15,Cc1cc(C(=O)Nc2cccc(O)c2)co1,14.1
16,C=CCN1C(=O)CS/C1=N/c1nccs1,-3.15
17,COc1ccc(C=O)cc1CN1CCCN(Cc2ccc(Cl)cc2)S1(=O)=O,14.1
18,CN(C(=O)c1ccncc1)C1CCCN(Cc2ccccc2F)C1 (stereo not drawn),12.1
19,NS(=O)(=O)c1ccc(CCNC(=O)CCCOc2ccccc2)cc1,2.47
20,C[C@@H](NC(=O)c1coc(=O)c(Br)c1)c1ccccc1,9.7
21,Cn1cc(CC(=O)N2CCN(c3ccccc3F)CC2)c2ccccc21,22
22,Cc1ccccc1C(=O)NNC(=O)Cc1ccccc1,4.51
23,CCOC(=O)c1c(C)[nH]c(C(=O)COC(=O)c2oc3ccccc3c2C)c1C,11.1

row,SMILES,"hERG current change (%, negative = inhibition) at 1uM [%]"
1,O=C(COc1ccccc1)OC(C(=O)c1ccccc1)c1ccccc1 (stereo not drawn),14.1
2,COc1ccc(NC(=O)Nc2ccc3c(c2)N(C)C(=O)CS3)cc1OC,7.61
3,COc1cccc(NC(=O)c2cc(S(=O)(=O)N3CCc4ccccc43)cn2C)c1,19.2
4,Nc1c(C(=O)CSc2nnc(-c3ccccc3)o2)c(=O)[nH]c(=O)n1C1CC1,14.9
5,COc1ccc(C2(O)CCN(CCCCOc3ccccc3)CC2)cc1,-43.9
6,COc1ccccc1C(=O)N/N=C/c1ccc2c(c1)OCO2,16.7
7,Cc1cc(C)c2ccc(NN)nc2c1O,8.88
8,Cc1ccc(C(=O)Cn2cnc3ccccc3c2=O)cc1,15.6
9,Cc1ccc(-c2cnc(NC(=O)CCC(=O)N(C)Cc3ccccc3)n2C)cc1,0.527
10,O=[N+]([O-])c1cccc(C(=Nc2ccccc2Cl)NO)c1,4.3
11,Oc1ccc(/C=N/N=C(c2ccccc2)c2ccccc2)c(O)c1O,6.7
12,Cc1ccc(-n2ncc3c2CC(C)(C)CC3NC(=O)C2CCOCC2)cc1 (stereo not drawn),-8.93
13,Nn1c(SCCOc2ccc(Cl)cc2)nnc1-c1cccnc1,23.1
14,O=C(N1CCOCC1)N1CCN(Cc2ccccc2)CC1,3.97
15,O=c1nc(N/N=C/c2c[nH]c3ccccc23)cn[nH]1,26
16,CN(C)c1ccc(/C=C2/NC(=O)NC2=O)cc1,17.4
17,O=C(Nc1cc(Cl)ccc1Oc1ccccc1)c1ccccc1F,10
18,O=C(c1ccc2c(c1)OCO2)N1CCN(S(=O)(=O)N2CCCCC2)CC1,9.32
19,CN(c1ccccc1N(C)S(=O)(=O)c1ccccc1)S(=O)(=O)c1ccccc1,6.7
20,Cc1ccc(Nc2cc(C)c(O)c(C)c2)cc1,12
21,Cc1nc(CN2CCOCC2)cc(=O)[nH]1,-3.69
22,CC(C)NC(=O)C1CCN(C2CCN(Cc3nc4ccccc4s3)CC2)CC1,-17.1
23,COC(=O)c1cccc(NC(=O)NC(=O)c2ccccc2Cl)c1,14.2

row,SMILES,"hERG current change (%, negative = inhibition) at 1uM [%]"
1,Cc1ccc(C(=O)CN(CCC(=O)O)C(=O)c2ccncc2)cc1,12.1
2,COc1cc2c(cc1NC(=O)CSCC(=O)O)oc1ccccc12,11.9
3,Cc1cc(Cl)ccc1OCC(=O)NCCOC(=O)Nc1sc(=S)n(C)c1C,9.18
4,O=C(CSc1nnc(Nc2ccccc2)s1)NCCN1C(=O)CSC1=O,27.1
5,Cc1ccccc1CC(=O)N1CCCc2ccccc21,15.1
6,O=C(Nc1ccccc1N1CCCC1)c1cccc(-c2cc3ccccc3oc2=O)c1,9.48
7,Cl.Cn1ccc2cc3c(cc21)CCN3C(=O)Nc1cccnc1.O,-3.48
8,Cc1ccc2nc(/C=C/c3cccc(F)c3)ccc2c1,12
9,CCn1nc(C(=O)OCc2cccc(S(=O)(=O)N(C)C)c2)c2ccccc2c1=O,1.92
10,Cn1c(=O)n(C)c2cc(C(N)=O)ccc21,-0.522
11,CNC(=O)c1[nH]cnc1C(=O)N[C@@H](CC(C)C)C(=O)OCc1ccccc1,-51.8
12,CC(/C=N/NC(=O)c1cccs1)=C\c1ccccc1,10.6
13,COc1ccc(N(C)S(=O)(=O)c2cccc(C(=O)NCc3ccc(C)cc3)c2)cc1,7.51
14,CCOC(=O)/C(C#N)=N/Nc1ccc(S(=O)(=O)Nc2cc(OC)nc(OC)n2)cc1,-1.6
15,CN(CC1CCOCC1)C(=O)c1ccc2nc(Cc3cccc(Cl)c3)oc2c1,3.09
16,COC(=O)c1ccc(CN2CCN(Cc3ccc(C(=O)OC)o3)CC2)o1,19.1
17,CCCNC(=O)c1ccc2c(c1)S(=O)(=O)c1ccccc1C2=O,-0.0772
18,COCCCNC(=O)CCc1c(C)c2cc3c(C)coc3cc2oc1=O,8.9
19,COc1ccc(C)cc1N(CC(=O)NCCN1CCOCC1)S(=O)(=O)c1ccccc1,3.25
20,C=CCNC(=O)O/N=C/c1csc([N+](=O)[O-])c1,18.3
21,Cn1c(-c2ccc(Br)o2)nc2cc(Br)ccc21,31.1
22,Cc1ccc2c(c1)N(CCC(=O)NC(C)C)C(=O)CO2,12.4
23,CCOC(=O)/C(C#N)=N\Nc1cc(Cl)ccc1OC,3.14

row,SMILES,"hERG current change (%, negative = inhibition) at 1uM [%]"
1,Cc1ccc(Cn2c(C3CCCN3c3nc(C)cs3)nc3cc(C(F)(F)F)ccc32)cc1 (stereo not drawn),8.04
2,CCCCOc1ccc(CN(CCO)CCO)cc1[N+](=O)[O-].Cl,12
3,COc1ccccc1CNC(=O)[C@H](C)NC(=O)C1CCN(C(=O)[C@@H](N)CCSC)CC1,11.1
4,O=C(CC1C(=O)NCCN1Cc1cccc(Oc2ccccc2)c1)NCCc1cscn1 (stereo not drawn),9.64
5,O=C(CCn1cnnn1)Nc1ccc(F)cc1,0.52
6,Oc1ccc(Cl)cc1C1=NNC(c2ccc(Cl)cc2)C1 (stereo not drawn),8.72
7,Cn1cc(C(=O)OCC(=O)NC2(C#N)CCCC2)c2ccccc21,-1.68
8,COc1ccc(S(=O)(=O)N(C)C)cc1NCC(=O)Nc1ccc(Br)c(C)c1,-2.91
9,CCOC(=O)COc1ccc2c(=O)c(-c3ccccc3)coc2c1,18
10,COCC1CCN(C(=O)CCc2nnc(CCCCc3ccccc3)o2)CC1,9.68
11,COCC(C)n1c(C)cc(C(=O)COC(=O)c2ccc3ncsc3c2)c1C (stereo not drawn),-2.07
12,CCOc1ncccc1C(=O)OCC(=O)N1CCc2ccccc21,4.2
13,C=CCNC(=O)c1ccc(CSc2nc3ccccc3s2)cc1,15
14,Cc1ccc(C(C)C)c(OCC(=O)OCC(=O)c2c(N)n(C)c(=O)n(C)c2=O)c1,13.2
15,Cc1cc(NC(=O)CC(C)C)c(=O)n(Cc2ccccc2F)c1,10.7
16,O=C(N/N=C/c1cc([N+](=O)[O-])cc([N+](=O)[O-])c1O)C(O)(c1ccccc1)c1ccccc1,0.978
17,O=S1(=O)CC(O)C(N2CCCCC2)C1 (stereo not drawn),0.989
18,CC(C)(C)C(=O)c1cn(CC(=O)NCc2ccc3c(c2)OCO3)c2ccccc12,4.7
19,COc1cccc(NS(=O)(=O)c2ccc3c(c2)CCN3C(C)=O)c1,1.94
20,CCOc1ccc(N2C(=O)CC(N3CCN(c4ccc(Cl)cc4)CC3)C2=O)cc1 (stereo not drawn),15.7
21,CC1=C(C(=O)Nc2cc(C(=O)NCCCOC(C)C)ccc2C)SCCO1,11.8
